About 64,000 (15%) of roughly 420,000 compounds were called active. This list was built around the results that the source calls inconclusive (neither active nor inactive); the mix of calls is not that of the screen. Calls come from the whole dose curve; as a rule, active = well fitted inhibition curve with a large enough effect; inconclusive = small, poorly fitted or top-dose-only effect; inactive = flat fitted curve, though single readings scatter. No potency is given beside an inconclusive call; the fits are too rough.
Assay: qHTS for Inhibitors of human tyrosyl-DNA phosphodiesterase 1 (TDP1): qHTS in cells in absence of CPT; note: nearly all actives have a fitted effect of over 55% in size
Settings: DT40 Tdp1-/- hTDP1 cells, no CPT, ATP luminescence, 48 h; activity change, negative = growth inhibition: at 46.2 µM (top of the series)
In short: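 Chicken DT40 Tdp1-/- cells complemented with human TDP1, screened without camptothecin (DMSO vehicle only), 400 cells/well. Compounds pin-transferred, cells incubated at 37 °C for at least 48 hr. Growth read as ATP-dependent luminescence (CellTiter-Glo, 30 min at RT).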
% is set by controls: 0 for no effect and ±100 for the full control effect; potency is the fitted concentration of half-maximal effect; tags give direction and shape of the fitted curve.

Row | Structure (SMILES) | Potency | activity change, negative = growth inhibition
1 | O=C(Nc1cccc(Cl)c1)N1CCC(CO)(CCOc2ccccc2)CC1 | inconclusive [inhibitor, single point] | 
2 | CCNc1nc(N2CCCC2)nc(N2CCCC2)n1 | inconclusive [inhibitor, single point] | 
3 | COc1ccccc1CNC(=O)Nc1nc(C(N)CCc2ccccc2)cs1 (stereo not given) | active: 18.4 µM | 
4 | Oc1cccc(C2c3[nH]c4ccccc4c3CCN2Cc2cnn(-c3ccccc3)c2)c1 (stereo not given) |  | inconclusive: -30.8% [inhibitor]
5 | CCN(CC)C(=O)c1sc2c(c1C)c(=O)n(CCc1ccccc1)c(=O)n2Cc1cccc(Cl)c1 | active: 14.6 µM | 
6 | Cc1ccc(C(=O)CCC(=O)N2CCN(c3ccccc3O)CC2)cc1 | inconclusive [inhibitor, partial curve, poor fit] | 
7 | COc1ccc(Cc2nnc(NC(=O)Cc3cccs3)s2)cc1OC |  | inactive: -2.66%
8 | COc1ccc(C2=NN(C(=O)CSc3ncccn3)C(c3ccc(OC)cc3)C2)cc1 (stereo not given) | inconclusive [inhibitor, partial curve] | 
9 | CCc1ccccc1N(CC(=O)NC1CCCCC1)C(=O)CCC(=O)Nc1ccccn1 |  | inactive: -17.5%
10 | CC(=O)Nc1ccc(S(=O)(=O)Nc2ccc3c(c2)OCO3)cc1 | inconclusive [inhibitor, single point] | 
11 | CCOc1ccc(/C=N/OCC(=O)Nc2cc(C)on2)cc1 |  | inconclusive: -30.6% [inhibitor]
12 | CCCCC(C(=O)OCC(=O)c1ccc(OC)cc1)N1C(=O)c2ccccc2C1=O (stereo not given) | inconclusive [inhibitor, partial curve] | 
13 | CS(=O)(=O)c1ccc(C(=O)OCc2nnc(-c3ccccc3)o2)cc1[N+](=O)[O-] | active: 10.3 µM | 
14 | COc1ccccc1NC(=O)c1ccc(NC(=O)CSc2nnnn2C)cc1 |  | inactive: -90.6%
15 | COc1ccc(Cl)cc1NC(=O)C(C)N1CCN(c2ccccn2)CC1 (stereo not given) | active: 18.4 µM | 
16 | COCCn1c(N)c(C(=S)NC(=O)c2cccs2)c(=O)[nH]c1=O | inconclusive [inhibitor, single point] | 
17 | C=CCc1cccc2cc(C(=O)NC3CCCCC3)c(=O)oc12 | inconclusive [inhibitor, partial curve] | 
18 | CCOC(=O)c1nnn(-c2nonc2N)c1CN(CC)CC |  | inactive: -11.7%
19 | CCOc1ccccc1N1CC(c2nc3ccccc3n2CCCCOc2cc(C)ccc2C)CC1=O (stereo not given) | inconclusive [inhibitor, single point] | 
20 | OC[C@@H]1CN(Cc2ccc3c(c2)OCO3)C[C@H](n2cnc3c(NC4CC4)ncnc32)O1 | active: 20.6 µM | 
21 | CN(C)c1ccc(CNC(=O)c2ccc3c(c2)N(C)C(=O)C2CCCCN32)cc1 (stereo not given) | inconclusive [inhibitor, single point] | 
22 | O=C(c1cnc(N2CCOCC2)c2ccccc12)N1CCN(c2ccccc2F)CC1 | inconclusive [inhibitor, single point] | 
23 | COCCNS(=O)(=O)c1ccc(-c2ccc(C)cc2)cc1 | inconclusive [inhibitor, partial curve] | 
24 | CCCOc1ccc(CSc2nnc(CCC)n2N)cc1 |  | inactive: -23%

Row | Structure (SMILES) | Potency | activity change, negative = growth inhibition
25 | CCOc1ccc(CCNC(=O)CCNC(=O)c2ccccc2Cl)cc1OCC |  | inactive: -5.11%
26 | COc1cccc(C(=O)NCCN2CCN(c3ccc(Cl)cc3)CC2)c1 | inconclusive [inhibitor, partial curve, poor fit] | 
27 | N#Cc1ccsc1NC(=O)COC(=O)c1cc(Br)ccc1O |  | inactive: -7.54%
28 | Cc1ccc(C)c(NC(=O)Nc2csc3c2CCCC3)c1 |  | inconclusive: -34.2% [inhibitor]
29 | COc1cc(/C=N/NC(=O)c2ccc3nc[nH]c3c2)cc(OC)c1OC |  | inactive: -2.33%
30 | O=C(CSc1ccccc1)NCCCc1ccccc1 |  | inactive: -13.3%
31 | COc1ccc(OCCNC(=O)C(c2ccccc2)c2ccccc2)cc1 | inconclusive [inhibitor, single point] | 
32 | COc1ccccc1NC(=O)Cn1c(=O)n(Cc2nc(-c3ccccc3)no2)c(=O)c2ccccc21 | inconclusive [inhibitor, single point] | 
33 | Cn1nc(-c2ccccc2)c(CO)c1Sc1ccccc1 |  | inactive: -21.6%
34 | Cc1nn(-c2ccccc2)c(Cl)c1/C=N/NC(=O)c1ccco1 |  | inactive: -22.5%
35 | Cc1ccc(C(=O)C(C)Oc2ccc3ccc(=O)oc3c2)cc1 (stereo not given) | inconclusive [inhibitor, single point] | 
36 | CCCCOc1ccc(/C=C(\C#N)C(=O)NC2CC2)cc1 | active: 29.1 µM | 
37 | O=S(=O)(O)c1cc2onnc2c2ccccc12 | inconclusive [inhibitor, partial curve, poor fit] | 
38 | CCn1c(CNC(=O)c2ccco2)nnc1SCC(=O)Nc1cc(C(F)(F)F)ccc1Cl |  | inconclusive: -33.5% [inhibitor]
39 | O=C(/C=C/c1cccc(Cl)c1)NNC(=O)c1ccncc1 |  | inactive: 11.4%
40 | O=c1[nH]c(=S)ccn1C1OC(CO)C(O)C1O (stereo not given) | inconclusive [inhibitor, partial curve, poor fit] | 
41 | Cc1ccc(S(=O)(=O)N(C)C[C@H]2OCCCC[C@H](C)Oc3ccc(NC(=O)Nc4cccc5ccccc45)cc3C(=O)N([C@@H](C)CO)C[C@H]2C)cc1 | inconclusive [inhibitor, single point] | 
42 | CCOC(=O)N1CCN(Cc2ccc(OCC(O)CN3CCCCC3)cc2)CC1 (stereo not given) |  | inactive: 9.23%
43 | CCOc1ccc(S(=O)(=O)N2CCN(c3ccccc3OC)CC2)c2cccnc12 | active: 23.1 µM | 
44 | O=C(CCCc1nc2ccccc2s1)N1CCN(c2ccccc2)CC1 | inconclusive [inhibitor, single point] | 
45 | O=C(CN1N=C(c2ccccc2)CCC1=O)NCCN1CCc2ccccc2C1 |  | inactive: -22.8%
46 | CCOc1ccc2nc(N3CCCC(C(=O)NCc4ccc(C)cc4)C3)sc2c1 (stereo not given) | inconclusive [inhibitor, single point] | 
47 | O=C(NCc1ccccc1)c1cccc(NC(=O)c2ccco2)c1 |  | inactive: -4.05%
48 | CCOC(=O)C1(CCc2ccccc2)CCN(C(=O)c2cnc(C)cn2)CC1 | inconclusive [inhibitor, partial curve] | 

Row | Structure (SMILES) | Potency | activity change, negative = growth inhibition
49 | Cc1cc(O)cc(O)c1C(=O)Cc1ccccc1 | inconclusive [inhibitor, single point] | 
50 | Cc1sc2nc(CN3CCOCC3)nc(Cl)c2c1C |  | inactive: -15.4%
51 | Cc1ccc(S(=O)(=O)N2C[C@H]3C(=O)C[C@@H](c4ccccc4)N(S(=O)(=O)c4ccccc4)[C@H]3C[C@H]2c2ccccc2)cc1 | inconclusive [inhibitor, partial curve, poor fit] | 
52 | CN=C1S/C(=C\c2ccc(O)c(Br)c2)C(=O)N1C | inconclusive [inhibitor, partial curve, poor fit] | 
53 | CCOc1ccc(NC(=O)CC2C(=O)N(c3ccc(OC)cc3)C(=O)N2CCc2cccs2)cc1 (stereo not given) | inconclusive [inhibitor, single point] | 
54 | CCOc1ccc(S(=O)(=O)N(C)c2ccc(OCC(=O)Nc3ccccc3F)cc2)cc1 | inconclusive [inhibitor, single point] | 
55 | CCC1=C(c2ccc(C)cc2)S(=O)(=O)N=C1N1CCC(C(=O)N2CCCCC2)CC1 | inconclusive [inhibitor, single point] | 
56 | COc1ccccc1-c1nnc(NC(=O)c2ccccc2F)o1 | inconclusive [inhibitor, single point] | 
57 | Cc1ccc(CC(=O)Nc2ccc(F)c([N+](=O)[O-])c2)cc1C | inconclusive [inhibitor, partial curve] | 
58 | O=[N+]([O-])c1cccnc1SCc1c(F)cccc1Cl |  | inconclusive: -32.1% [inhibitor]
59 | COc1ccc(NC(=O)CN(C)CC(=O)c2[nH]c(C)c(C(C)=O)c2C)cc1 | inconclusive [inhibitor, single point] | 
60 | COc1cc(NC(=O)c2ccc(Cl)cc2)c(OC)cc1NC(=O)CN1CCCCC1 | active: 18.4 µM | 
61 | COc1ccc(NC(=O)Cn2cc(C(=O)c3cccs3)c3ccccc32)cc1 | inconclusive [inhibitor, single point] | 
62 | S=C(Nc1ccccc1)Nc1ccc2ccccc2c1 | inconclusive [inhibitor, partial curve] | 
63 | COC(=O)[C@]1(Cc2ccccc2)N[C@H](c2ccc(SC3CCCCC3)c(OC)c2)[C@@H]2C(=O)N(C)C(=O)[C@@H]21 | inconclusive [inhibitor, single point] | 
64 | COc1ccc(/C=C2\Sc3ccc(C(=O)NCCN4CCCCCC4)cc3N(C)C2=O)cc1 | active: 23.1 µM | 
65 | COc1cccc(NC(=O)c2cccc(S(=O)(=O)N3CCN(Cc4ccccc4)CC3)c2)c1 | inconclusive [inhibitor, single point] | 
66 | Cn1cc(-c2nc3cnc(N4CCNCC4)nc3n(CCC#N)c2=O)c2ccccc21 | inconclusive [inhibitor, single point] | 
67 | NC(=O)/C=C\C(=O)Nc1cccc(C(F)(F)F)c1 | active: 20.6 µM | 
68 | CCS(=O)(=O)NCCc1csc2nc(-c3ccc(C)cc3)nn12 | inconclusive [inhibitor, single point] | 
69 | O=C(CCc1ccc(S(=O)(=O)N2CCOCC2)cc1)Nc1ccc(F)c(F)c1F |  | inactive: -21.4%
70 | CCOC(=O)[C@]12CCC=C1N(Cc1ccco1)C(=O)[C@H](CC(=O)NCC13CC4CC(CC(C4)C1)C3)C2 | inconclusive [inhibitor, single point] | 
